The text below walks through data of patent US20240101682A1 (PINETREE THERAPEUTICS, published 2024).

B1: bsAb with heavy chain polypeptide SEQ ID NO: 7 and light chain SEQ ID NO: 12 (bispecific antibody, human IgG1, kappa)
heavy: QVQLQESGPGLVKPSETLSLTCTVSGGSVSSGDYYWTWIRQSPGKGLEWIGHIYYSGNTNYNPSLKSRLTISIDTSKTQFSLKLSSVTAADTAIYYCVRDRVTGAFDIWGQGTMVTVSS[human IgG1 constant region not written out]GGGGSGGGGSGGGGSEVQLVESGGGLVQPGGSLRLSCAASGFTFSSYAMSWVRQAPGKGLEWVSQISPAGGYTNYADSVKGRFTISADTSKNTAYLQMNSLRAEDTAVYYCARGELPYFRMSKVMDVWGQGTLVTVSSGGGGSGGGGSGGGGSDIQMTQSPSSLSASVGDRVTITCRASQFLSSYLAWYQQKPGKAPKLLIYGASARASGVPSRFSGSGSGTDFTLTISSLQPEDFATYYCQQYLASPATFGQGTKVEIK
light: DIQMTQSPSSLSASVGDRVTITCQASQDISNYLNWYQQKPGKAPKLLIYDASNLETGVPSRFSGSGSGTDFTFTISSLQPEDIATYFCQHFDHLPLAFGGGTKVEIKRTVAAPSVFIFPPSDEQLKSGTASVVCLLNNFYPREAKVQWKVDNALQSGNSQESVTEQDSKDSTYSLSSTLTLSKADYEKHKVYACEVTHQGLSSPVTKSFNRGEC
B2: bsAb with heavy chain polypeptide SEQ ID NO: 8 and light chain SEQ ID NO: 12 (bispecific antibody, human IgG1, kappa)
heavy: QVQLQESGPGLVKPSETLSLTCTVSGGSVSSGDYYWTWIRQSPGKGLEWIGHIYYSGNTNYNPSLKSRLTISIDTSKTQFSLKLSSVTAADTAIYYCVRDRVTGAFDIWGQGTMVTVSS[human IgG1 constant region not written out]GGGGSGGGGSGGGGSEVQLVESGGGLVQPGGSLRLSCAASGFTFSSYAMSWVRQAPGKGLEWVSQISPAGGYTNYADSVKGRFTISADTSKNTAYLQMNSLRAEDTAVYYCARGELPYFRMSKVMDVWGQGTLVTVSSGDGSSGGGGASDIQMTQSPSSLSASVGDRVTITCRASQFLSSYLAWYQQKPGKAPKLLIYGASARASGVPSRFSGSGSGTDFTLTISSLQPEDFATYYCQQYLASPATFGQGTKVEIK
light: B1 light
B3: bsAb with heavy chain polypeptide SEQ ID NO: 9 and light chain SEQ ID NO: 12 (bispecific antibody, human IgG1, kappa)
heavy: QVQLQESGPGLVKPSETLSLTCTVSGGSVSSGDYYWTWIRQSPGKGLEWIGHIYYSGNTNYNPSLKSRLTISIDTSKTQFSLKLSSVTAADTAIYYCVRDRVTGAFDIWGQGTMVTVSS[human IgG1 constant region not written out]GGGGSGGGGSGGGGSEVQLVESGGGLVQPGGSLRLSCAASGFTFSSYAMSWVRQAPGKGLEWVSQISPAGGYTNYADSVKGRFTISADTSKNTAYLQMNSLRAEDTAVYYCARGELPYFRMSKVMDVWGQGTLVTVSSGGGGSGGGGSGGGGSGGGGSDIQMTQSPSSLSASVGDRVTITCRASQFLSSYLAWYQQKPGKAPKLLIYGASARASGVPSRFSGSGSGTDFTLTISSLQPEDFATYYCQQYLASPATFGQGTKVEIK
light: B1 light
B4: bsAb with heavy chain polypeptide SEQ ID NO: 10 and light chain SEQ ID NO: 12 (bispecific antibody, human IgG1, kappa)
heavy: QVQLQESGPGLVKPSETLSLTCTVSGGSVSSGDYYWTWIRQSPGKGLEWIGHIYYSGNTNYNPSLKSRLTISIDTSKTQFSLKLSSVTAADTAIYYCVRDRVTGAFDIWGQGTMVTVSS[human IgG1 constant region not written out]GGGGSGGGGSGGGGSDIQMTQSPSSLSASVGDRVTITCRASQFLSSYLAWYQQKPGKAPKLLIYGASARASGVPSRFSGSGSGTDFTLTISSLQPEDFATYYCQQYLASPATFGQGTKVEIKGGGGSGGGGSGGGGSEVQLVESGGGLVQPGGSLRLSCAASGFTFSSYAMSWVRQAPGKGLEWVSQISPAGGYTNYADSVKGRFTISADTSKNTAYLQMNSLRAEDTAVYYCARGELPYFRMSKVMDVWGQGTLVTVSS
light: B1 light
B5: bispecific antibody with heavy chain SEQ ID NO: 11 and light chain SEQ ID NO: 12 (Construct 11) (bispecific antibody, human IgG1, kappa)
heavy: QVQLQESGPGLVKPSETLSLTCTVSGGSVSSGDYYWTWIRQSPGKGLEWIGHIYYSGNTNYNPSLKSRLTISIDTSKTQFSLKLSSVTAADTAIYYCVRDRVTGAFDIWGQGTMVTVSS[human IgG1 constant region not written out]GGGGSGGGGSGGGGSEVQLLESGGGLVQPGGSLRLSCAASGFTFSSYAMSWVRQAPGKGLEWVSQISPAGGYTNYADSVKGRFTISRDNSKNTLYLQMNSLRAEDTAVYYCARGELPYFRMSKVMDVWGQGTLVTVSSGGGGSGGGGSGGGGSEIVLTQSPGTLSLSPGERATLSCRASQFLSSYLAWYQQKPGQAPRLLIYGASARASGIPDRFSGSGSGTDFTLTISRLEPEDFAVYYCQQYLASPATFGQGTKVEIK
light: B1 light
notes: also called Construct 11 bsAb

A value given as a limit tells only on which side of the number the result lay.

One test deals with T1, recombinant human NRP1, biotinylated (human, UniProt O14786-2 22-644, limits assumed, biotinylated (site not stated)).
T1 construct: also called huNRP1; recombinant NRP1
Kind of test: BLI (Octet Red 96), biotinylated antigen on streptavidin sensor, bsAb in solution, bivalent format. (In general: BLI is a label-free optical method that tracks binding on a fibre tip over time.)
Consider B1, for which the Kd is 0.28 nM.

Consider B2, for which the Kd was 2 nM.

On to B3, for which the Kd is 0.88 nM.

Take B4: the Kd came to 0.25 nM.

Take B5: the Kd is 0.25 nM.

Another test deals with T2, recombinant human EGFR, biotinylated (human, UniProt P00533 fragment, biotinylated (site not stated)).
T2 construct: also called huEGFR; recombinant huEGFR
The description is as above.
With B1, the Kd is below 0.1 nM.

Consider B2, for which the Kd is below 0.1 nM.

As for B3, the Kd was below 0.1 nM.

As for B4, the Kd is below 0.1 nM.

Regarding B5, the Kd was below 0.1 nM.
